From article PMC4336329 (PLoS ONE, 2015)
Out of some 310,000 compounds screened, about 14,000 (4.5%) showed an effect of 50% or more. Effects have a minus sign here. This is one part of the list.

Target: human ether-à-go-go-related gene (hERG) potassium channel (human, UniProt Q12809)
Assay: primary screen, population patch clamp on CHO cells stably expressing hERG
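Further: peak tail current of the secondary pulse compared with the same well before compound.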

Chain of human ether-à-go-go-related gene (hERG) potassium channel (Q12809 whole entry, looked up): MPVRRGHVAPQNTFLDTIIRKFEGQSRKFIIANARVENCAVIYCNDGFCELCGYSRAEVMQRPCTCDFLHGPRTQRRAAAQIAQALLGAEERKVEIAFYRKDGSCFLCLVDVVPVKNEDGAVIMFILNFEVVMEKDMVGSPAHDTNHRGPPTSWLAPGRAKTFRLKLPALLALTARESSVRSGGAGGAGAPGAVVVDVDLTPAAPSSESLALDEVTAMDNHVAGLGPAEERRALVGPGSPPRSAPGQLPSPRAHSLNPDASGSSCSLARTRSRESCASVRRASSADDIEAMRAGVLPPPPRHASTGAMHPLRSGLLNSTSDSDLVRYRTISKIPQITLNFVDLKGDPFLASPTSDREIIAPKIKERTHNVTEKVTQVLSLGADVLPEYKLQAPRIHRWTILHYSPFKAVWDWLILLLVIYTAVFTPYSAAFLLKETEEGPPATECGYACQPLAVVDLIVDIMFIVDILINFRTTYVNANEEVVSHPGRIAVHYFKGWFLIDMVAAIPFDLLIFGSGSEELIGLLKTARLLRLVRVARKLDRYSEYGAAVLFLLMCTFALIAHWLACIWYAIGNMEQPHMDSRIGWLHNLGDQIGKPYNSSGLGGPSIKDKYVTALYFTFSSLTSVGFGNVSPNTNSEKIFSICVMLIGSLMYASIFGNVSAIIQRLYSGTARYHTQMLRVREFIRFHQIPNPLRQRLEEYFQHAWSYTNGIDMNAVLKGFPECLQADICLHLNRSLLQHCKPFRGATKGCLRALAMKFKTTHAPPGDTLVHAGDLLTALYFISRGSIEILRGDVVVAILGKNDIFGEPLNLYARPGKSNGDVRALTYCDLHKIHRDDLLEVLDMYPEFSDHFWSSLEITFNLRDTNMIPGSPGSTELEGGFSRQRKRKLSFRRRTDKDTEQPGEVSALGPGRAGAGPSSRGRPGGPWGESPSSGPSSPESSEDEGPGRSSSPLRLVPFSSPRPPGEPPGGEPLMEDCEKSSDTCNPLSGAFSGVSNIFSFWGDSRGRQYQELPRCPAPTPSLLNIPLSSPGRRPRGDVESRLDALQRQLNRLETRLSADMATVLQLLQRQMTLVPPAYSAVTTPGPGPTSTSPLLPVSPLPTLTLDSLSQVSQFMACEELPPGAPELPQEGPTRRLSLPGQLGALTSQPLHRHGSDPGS

Row | Structure (SMILES) | hERG current change (%, negative = inhibition) at 10uM
1 | O=C(NCC1([N+](=O)[O-])CN(C(=O)c2ccccc2)CN(C(=O)c2ccccc2)C1)c1ccccc1 | -5.14%
2 | CC(C)(C)OC(=O)N1CCC(NC(=O)c2[nH]cnc2C(=O)N[C@@H](Cc2ccccc2)C(=O)OCc2ccccc2)CC1 | 12.9%
3 | O=C(O)c1ccc(CS(=O)c2cccc(C(F)(F)F)c2)o1 (stereo not drawn) | -4.59%
4 | NNC(=O)[C@H]1C[C@@H]1c1ccccc1 | -0.643%
5 | CC(O)Cc1cn([C@@H](CCCCN)C(=O)N2CCNCC2)nn1.Cl (stereo partly drawn) | 1.06%
6 | Cc1cc(=O)oc2c(C)c(OC(C)C(=O)NCCCn3ccnc3)ccc12 (stereo not drawn) | -18.6%
7 | CCOc1cc(/C=N/N=C(\N)c2nonc2N)cc(Br)c1OCc1cccc2ccccc12 | 18.5%
8 | COc1cccc(CNS(=O)(=O)c2ccc3c(c2)CCN3C(=O)C2CC2)c1 | -0.982%
9 | CCOc1ccc2nc(NC(=O)Nc3ccccc3)sc2c1 | 10.4%
10 | FC(F)(F)C1CCCN(c2nsc3ccccc23)C1 (stereo not drawn) | 19.1%
11 | O=C(O)COCC(=O)N1CCc2c([nH]c3ccccc23)C1C(F)(F)F (stereo not drawn) | 2.14%
12 | COc1ccc(NC(=O)c2ccccc2NC(=O)COc2ccccc2)cc1 | -7.75%
13 | C=CCn1c(=O)c(C(=O)OCC)c(O)c2ccccc21 | 20%
14 | CCOC(=O)CCC(=O)Nc1ccc(S(=O)(=O)N2CCCC2)cc1 | -4.19%
15 | Cn1c(C2CCCCC2)nc2c1c(=O)[nH]c(=O)n2Cc1ccccc1 | -49.7%
16 | COc1ccc(OCc2nnc(SCC(=O)Nc3ccc(C)cc3)o2)cc1 | 19.5%
17 | COc1ccc(C(=O)NC(=S)N2CCOCC2)cc1OC | -0.236%
18 | N=C1/C(=C\c2ccc(OC(=O)c3ccco3)cc2)C(=O)N=C2SC(N3CCCCC3)=NN12 | 23%
19 | CCC(C)NC(=O)c1cn(-c2cccc(C)n2)cn1 (stereo not drawn) | -2.74%
20 | CCc1cc(C(=O)Nc2ncccc2O)sc1C | 5.71%
21 | CC(C)(CO)NCC(=O)Nc1cc(C(F)(F)F)cc(NC(=O)CNC(C)(C)CO)c1Cl | 8.09%
22 | CCCn1c(=O)[nH]c(=O)c2c1nc(-c1ccccc1OC(F)F)n2CCOC | 9.45%

Row | Structure (SMILES) | hERG current change (%, negative = inhibition) at 10uM
23 | COc1ccccc1-n1cc(-c2ccccc2)[nH]c1=S | 19.4%
24 | O=C(NCCNc1ccc([N+](=O)[O-])cc1)c1cccs1 | -13.9%
25 | COc1ccc(S(=O)(=O)N2CCC(C(=O)NCCN3CCOCC3)CC2)cc1OC | 15%
26 | O=C(Nc1ccc(O)cc1C(=O)O)c1cccs1 | 16.6%
27 | CC1CCN(S(=O)(=O)c2ccc(NC(=O)Cn3nnc(-c4ccccc4)n3)cc2)CC1 | 11.9%
28 | Cc1ccc(CNC(=O)C2CCCN(c3ncnc4c3nc3n4CCCCC3)C2)cc1 (stereo not drawn) | -49%
29 | CC1CCN(CCNC(=S)Nc2ccc(Cl)cc2)CC1 | -65.7%
30 | COc1ccccc1NS(=O)(=O)c1cccc(NC(=O)NC2CCCCC2)c1 | 11.7%
31 | CNC(=O)CN(CCc1ccccc1)S(=O)(=O)c1ccc(OC)cc1 | 2.12%
32 | O=C(NC(Cc1ccccc1)C(=O)O)/C(=C/c1cccc(Br)c1)NC(=O)c1ccco1 (stereo not drawn) | 12.7%
33 | Cc1ccc(-c2csc(N3N=C(c4ccccc4)/C(=C\c4ccc(N(C)C)cc4)C3=O)n2)cc1 | -5.17%
34 | COc1ccc(/C=N/OC(=O)c2ccc(Cl)cc2)c(Cl)c1OC | 3.29%
35 | C=CC12CN(C)[C@@H]3C4CO[C@H](C[C@H]41)[C@]1(C(=O)Nc4ccccc41)[C@@H]32 (stereo partly drawn) | 13.2%
36 | Cc1cccc(NS(=O)(=O)c2ccc(NC(=O)N3CCCCC3)cc2)c1 | 6.45%
37 | COc1ccc(C(CC(=O)N2CCOCC2)C(C)C)cc1 (stereo not drawn) | 24.1%
38 | O=C(NCCCN1CCOCC1)c1cc2c(=O)[nH]c3ccccc3c2s1 | 1.35%
39 | Cc1ccc(N(CC(=O)NC2CCCCC2)C(=O)CCCC(=O)Nc2ccccn2)c(C)c1 | -2.93%
40 | CCN1CCN(c2ccc(S(=O)(=O)N3CCCCC3)cc2NC(=O)c2ccc(F)cc2)CC1 | -56.5%
41 | CN(C)c1nc(N(C)C)nc(N(C#N)Cc2ccc(Cl)cc2)n1 | 9.16%
42 | COc1ccc(C2CC(c3ccccc3)=NN2C(=O)CSc2ncccn2)cc1 (stereo not drawn) | 12.3%
43 | CCOc1ccc(OCC(=O)OCc2csc(CC(=O)Nc3ccccc3C)n2)cc1 | 14.8%
44 | O=C(Oc1ccc(N2C(=O)CCC2=O)cc1)c1ccccc1Cl | -0.356%

Row | Structure (SMILES) | hERG current change (%, negative = inhibition) at 10uM
45 | COc1cc(CCCN2C(=O)C(=O)NC[C@@H]2CC2CCCCC2)cc(OC)c1OC | 4%
46 | C=CCn1c(SCC(=O)Nc2ccc(C(=O)O)cc2)nc2sc(C)c(C)c2c1=O | 8.9%
47 | COc1cccc(/C=N/Nc2ncccc2[N+](=O)[O-])c1OC | -2.19%
48 | COCCN(C(=S)Nc1c(C)cc(C)cc1C)C(C)c1cccs1 (stereo not drawn) | -24.8%
49 | Cc1[nH]n(C(N)=S)c(=O)c1N=Nc1cccc([N+](=O)[O-])c1C | 10.9%
50 | O=C(CN1C(=O)CCS(=O)(=O)c2ccccc21)Nc1cccc(F)c1 | -9.14%
51 | COc1ccc(C(c2c(C)n(C)n(-c3ccccc3)c2=O)c2c(C)n(C)n(-c3ccccc3)c2=O)cc1 | 5.45%
52 | Cc1ccc(NC(=O)COC(=O)c2c(-c3ccccc3)noc2C)c(C)c1 | 1.23%
53 | CCOC(=O)C1=C(C)N(c2ccccc2)C(=O)/C1=C\c1cccs1 | 18.1%
54 | COc1cccc(C(=O)NCC(=O)N/N=C/c2ccc(OC(=O)c3cccs3)c(OC)c2)c1 | -21.3%
55 | COc1cccc(NS(=O)(=O)c2nc3nc(C)cc(C)n3n2)c1 | -6.02%
56 | COc1ccccc1-c1cc(C(=O)Nc2c(C)n(C)n(-c3ccccc3)c2=O)no1 | -34.9%
57 | Cc1c(C)c2ccc(OCC(=O)N3CCC(C(=O)O)CC3)cc2oc1=O | -6.41%
58 | O=[N+]([O-])c1cccc(/C=C/c2nc[nH]c2[N+](=O)[O-])c1 | 16.5%
59 | COCCCN(C(=O)C1CCC1)c1c(N)n(Cc2ccccc2)c(=O)[nH]c1=O | 7.19%
60 | Cn1c(SCC(=O)NC2CCCC2)nc2c(c1=O)SCC2 | 13.4%
61 | Cc1cccc(NC(=O)CN(C)CC(=O)NC(c2ccccc2)c2ccccc2)c1C | -30.5%
62 | O=C(NC1CCCCCC1)c1cc2c(=O)n3ccccc3nc2s1 | 0.251%
63 | COC(=O)COc1ccc(-c2ccccc2)cc1C=O | 5.39%
64 | CCC1=NN(C(=O)c2cccc([N+](=O)[O-])c2)C(O)(c2ccc(C)cc2)C1 (stereo not drawn) | -0.0698%
65 | CCOC(=O)N1CCC(Nc2c(Nc3ccc(F)cc3)c(=O)c2=O)CC1 | 16.7%
66 | CC1(c2nnc(-c3cccc(Cl)c3)o2)CC(c2cccc(Cl)c2)=NO1 (stereo not drawn) | -1.03%

Row | Structure (SMILES) | hERG current change (%, negative = inhibition) at 10uM
67 | O=C1NC(=Nc2ccccc2)S/C1=C\c1cccn1-c1ccccc1 | 8.02%
68 | CC(=O)c1cccc(NC(=O)N2CCOCC2)c1 | 18.1%
69 | O=C(NCCN1CCOCC1)c1ccc2c(c1)N(Cc1c(F)cccc1Cl)C(=O)c1ccccc1S2 | -14.6%
70 | O=C(Nc1ccc2oc(-c3ccncc3)nc2c1)c1ccco1 | -7.85%
71 | COc1ccc(/C(O)=C2/C(=O)C(=O)N(c3ccccn3)C2c2cccc(Cl)c2)cc1 (stereo not drawn) | 6.83%
72 | CCCNc1c(NC(=O)COc2ccc(Cl)cc2)c(=O)oc2ccccc12 | -32.5%
73 | O=C1CCC2(C(=O)O)Sc3ccccc3N12 (stereo not drawn) | 4.28%
74 | CCOc1ccccc1N1CCN(C(=S)Nc2ccc(S(=O)(=O)Nc3ncccn3)cc2)CC1 | -3.73%
75 | O=C(c1ccc(Br)o1)N1CCN(c2ccc(F)cc2)CC1 | -45.6%
76 | CCOc1ccc(NC(=S)N2CCN(S(=O)(=O)c3ccc(C)cc3)CC2)cc1 | -13.2%
77 | COc1ccccc1/C=C/C(=O)Nc1cccnc1 | 10%
78 | O=C(COC(=O)c1ccc(NS(=O)(=O)c2ccc3c(c2)OCCO3)cc1)NCC1CCCO1 (stereo not drawn) | 13.3%
79 | COc1cc(CCN)ccc1O.Cl | 15.1%
80 | C1CCC(n2nnnc2CN2CCCC2)CC1 | -1.31%
81 | CCOC(=O)c1c(NCC2CCCO2)c2ccccc2[nH]c1=O (stereo not drawn) | 0.695%
82 | O=C(N/N=C/c1cccc([N+](=O)[O-])c1)c1ccccc1-n1cccc1 | 5.75%
83 | CN1C(=O)NC(c2ccc(Cl)cc2)C2=C1CC(C)(C)CC2=O (stereo not drawn) | 5.73%
84 | CCC(=O)N1CCc2cc(S(=O)(=O)N(C)c3ccc(OC)cc3OC)ccc21 | 19.5%
85 | O=C(O)C1CCCCC1C(=O)Nc1cccc2ccccc12 (stereo not drawn) | 10.5%
86 | Cc1cc(C(=O)N/N=C/c2ccc[nH]2)no1 | 8.35%
87 | COc1ccc(NC2c3ncccc3C(=O)N2Cc2cccs2)cc1 (stereo not drawn) | -18.4%
